# Test results: a collection of fitness landscapes (doi:10.1126/science.1257360)
# Some of the results follow.
# B1: PhoQ; a variant is named by its letters at X, in order, P23837 (parent)
# chain: MKKLLRLFFPLSLRVRFLLATAAVVLVLSLAYGMVALIGYSVSFDKTTFRLLRGESNLFYTLAKWENNKLHVELPENIDKQSPTMTLIYDENGQLLWAQRDVPWLMKMIQPDWLKSNGFHEIEADVNDTSLLLSGDHSIQQQLQEVREDDDDAEMTHSVAVNVYPATSRMPKLTIVVVDTIPVELKSSYMVWSWFIYVLSANLLLVIPLLWVAAWWSLRPIEALAKEVRELEEHNRELLNPATTRELTSLVRNLNRLLKSERERYDKYRTTLTDLTHSLKTPLXXLQXXLRSLRSEKMSVSDAEPVMLEQISRISQQIGYYLHRASMRGGTLLSRELHPVAPLLDNLTSALNKVYQRKGVNISLDISPEISFVGEQNDFVEVMGNVLDNACKYCLEFVEISARQTDEHLYIVVEDDGPGIPLSKREVIFDRGQRVDTLRPGQGVGLAVAREITEQYEGKIVAGESMLGGARMEVIFGRQHSAPKDE
# Variants of: B1
# Assay: enrichment ratio after two sorts for PhoP signalling (ratio (wild type AVST 3.29)); higher = more functional
# Details: with PhoP (E. coli)
row,Variant,enrichment ratio
1,VVSP,≤ 0.25
2,SYLA,0.931
3,YHSY,≤ 0.25
4,DKIR,≤ 0.25
5,KSED,≤ 0.25
6,MDWQ,≤ 0.25
7,WKVY,≤ 0.25
8,DCGD,≤ 0.25
9,VWDF,≤ 0.25
10,GHTH,≤ 0.25
11,SCQT,≤ 0.25
12,NQGY,≤ 0.25
13,ICSM,3.87
14,FQCP,≤ 0.25
15,NNGG,≤ 0.25
16,VRQL,≤ 0.25
17,DAKI,≤ 0.25
18,FLWR,≤ 0.25
19,WSFA,≤ 0.25
20,LAWV,≤ 0.25
21,GNNQ,≤ 0.25
22,MERM,≤ 0.25
23,PECM,≤ 0.25
24,GSTQ,0.733

row,Variant,enrichment ratio
1,YGSG,≤ 0.25
2,QFER,≤ 0.25
3,RTGW,≤ 0.25
4,IEEF,≤ 0.25
5,LIAI,≤ 0.25
6,QNRS,≤ 0.25
7,ACDS,0.253
8,NQQI,≤ 0.25
9,ENCH,≤ 0.25
10,GAKS,≤ 0.25
11,TIPV,≤ 0.25
12,RLVY,≤ 0.25
13,RTQD,≤ 0.25
14,CLQL,≤ 0.25
15,WMFV,≤ 0.25
16,DKIT,≤ 0.25
17,GEHL,≤ 0.25
18,VTMM,12.1
19,MHWG,≤ 0.25
20,FIAT,≤ 0.25
21,YKCY,0.38
22,INYM,≤ 0.25
23,FQRE,≤ 0.25
24,QVLA,≤ 0.25

row,Variant,enrichment ratio
1,TQCQ,27.8
2,WETC,≤ 0.25
3,TMAL,14
4,RRQR,≤ 0.25
5,RMGG,≤ 0.25
6,YLCR,≤ 0.25
7,FEIM,3.82
8,AAEK,≤ 0.25
9,PHAN,≤ 0.25
10,FKTC,≤ 0.25
11,DVLC,≤ 0.25
12,MSEG,≤ 0.25
13,TWIW,≤ 0.25
14,VGNA,≤ 0.25
15,KPHR,≤ 0.25
16,PDVN,≤ 0.25
17,YRRR,≤ 0.25
18,IQCT,≤ 0.25
19,ENCY,≤ 0.25
20,FSKV,≤ 0.25
21,VEHQ,≤ 0.25
22,SHRR,≤ 0.25
23,NNGF,≤ 0.25
24,RLQH,≤ 0.25

row,Variant,enrichment ratio
1,LQMQ,≤ 0.25
2,VLPI,≤ 0.25
3,KSIA,≤ 0.25
4,GERW,≤ 0.25
5,LAYT,≤ 0.25
6,KQTI,≤ 0.25
7,DNRP,≤ 0.25
8,PGTQ,≤ 0.25
9,GALM,12.1
10,FLKF,≤ 0.25
11,YHRE,≤ 0.25
12,SWAQ,≤ 0.25
13,VRMD,≤ 0.25
14,THLR,≤ 0.25
15,DSGV,≤ 0.25
16,NIEH,≤ 0.25
17,TAML,25.8
18,HEFE,≤ 0.25
19,FSCT,≤ 0.25
20,YAYM,≤ 0.25
21,LPWC,≤ 0.25
22,WHCM,≤ 0.25
23,SPLA,≤ 0.25
24,ISVA,≤ 0.25

row,Variant,enrichment ratio
1,QFGH,≤ 0.25
2,HGPP,≤ 0.25
3,VPQT,≤ 0.25
4,RLQM,≤ 0.25
5,YSLL,11.4
6,EIYF,≤ 0.25
7,MYWI,≤ 0.25
8,PYPY,≤ 0.25
9,QMYW,≤ 0.25
10,VHLS,≤ 0.25
11,EKLH,≤ 0.25
12,MGIH,1.49
13,DHGT,≤ 0.25
14,PQCT,≤ 0.25
15,EDKY,≤ 0.25
16,ENQF,≤ 0.25
17,WERP,≤ 0.25
18,IDSL,0.274
19,PDEI,≤ 0.25
20,LRPF,≤ 0.25
21,SKND,≤ 0.25
22,QWFN,≤ 0.25
23,LLLG,≤ 0.25
24,RPGW,≤ 0.25

row,Variant,enrichment ratio
1,KMRD,≤ 0.25
2,TPIG,≤ 0.25
3,IAGK,≤ 0.25
4,QMYV,≤ 0.25
5,HQRD,≤ 0.25
6,YHLR,≤ 0.25
7,EHTH,≤ 0.25
8,QIQT,≤ 0.25
9,RGLD,≤ 0.25
10,GFKR,≤ 0.25
11,VEEV,≤ 0.25
12,YMVL,≤ 0.25
13,HFRT,≤ 0.25
14,ECYL,≤ 0.25
15,WYTH,≤ 0.25
16,IAVV,≤ 0.25
17,AYQY,≤ 0.25
18,HGAR,≤ 0.25
19,IYVH,≤ 0.25
20,MYTA,≤ 0.25
21,TFPK,≤ 0.25
22,MHGA,≤ 0.25
23,HCLC,≤ 0.25
24,PCTE,≤ 0.25

row,Variant,enrichment ratio
1,MYAK,≤ 0.25
2,SEVN,6.45
3,AGSA,9.14
4,TDGS,≤ 0.25
5,YPNF,≤ 0.25
6,MGGF,≤ 0.25
7,DDGY,≤ 0.25
8,WPIR,≤ 0.25
9,RTCS,≤ 0.25
10,DICS,≤ 0.25
11,GCKK,≤ 0.25
12,AKEV,≤ 0.25
13,YCRC,≤ 0.25
14,NNNA,≤ 0.25
15,QGPD,≤ 0.25
16,LNWQ,≤ 0.25
17,VYEH,≤ 0.25
18,GYPF,≤ 0.25
19,LMKS,≤ 0.25
20,PYTI,≤ 0.25
21,HCPS,≤ 0.25
22,YGHH,≤ 0.25
23,VNTL,2.18
24,NPWV,≤ 0.25

row,Variant,enrichment ratio
1,MQFL,2.22
2,DTSY,≤ 0.25
3,SCQG,7.52
4,MRPP,≤ 0.25
5,FNNN,≤ 0.25
6,NCRP,≤ 0.25
7,MVAW,≤ 0.25
8,GNPS,≤ 0.25
9,DEYG,≤ 0.25
10,NEFA,≤ 0.25
11,PSCG,≤ 0.25
12,EQFW,≤ 0.25
13,PKIA,≤ 0.25
14,KSHT,≤ 0.25
15,VAAH,≤ 0.25
16,LYRR,≤ 0.25
17,LCCD,≤ 0.25
18,GERA,≤ 0.25
19,AIHK,≤ 0.25
20,MFHF,≤ 0.25
21,INER,≤ 0.25
22,ERAY,≤ 0.25
23,SQFV,≤ 0.25
24,NMIS,≤ 0.25

row,Variant,enrichment ratio
1,TWPG,≤ 0.25
2,MIIM,≤ 0.25
3,DLHE,≤ 0.25
4,MFPV,≤ 0.25
5,YEGT,≤ 0.25
6,IWPW,≤ 0.25
7,LMMN,≤ 0.25
8,GHDP,≤ 0.25
9,VINH,≤ 0.25
10,FWLQ,≤ 0.25
11,AFCW,≤ 0.25
12,MQLW,≤ 0.25
13,HALI,12.2
14,FMDM,≤ 0.25
15,NAIH,≤ 0.25
16,QNYN,≤ 0.25
17,EPGR,≤ 0.25
18,PRPC,≤ 0.25
19,SPSP,≤ 0.25
20,TKDP,≤ 0.25
21,PEWY,≤ 0.25
22,RNTE,≤ 0.25
23,FKMP,≤ 0.25
24,DKTL,≤ 0.25

row,Variant,enrichment ratio
1,EAEG,≤ 0.25
2,CFMC,≤ 0.25
3,TDKH,≤ 0.25
4,LKII,≤ 0.25
5,HNPK,≤ 0.25
6,DMPD,≤ 0.25
7,NLHF,≤ 0.25
8,RENW,≤ 0.25
9,PYCV,≤ 0.25
10,WMRY,≤ 0.25
11,PVPW,≤ 0.25
12,QCLE,≤ 0.25
13,WFAV,≤ 0.25
14,SEGR,≤ 0.25
15,FPRS,≤ 0.25
16,EYPQ,≤ 0.25
17,ISMQ,4.94
18,MTVY,≤ 0.25
19,IGRR,≤ 0.25
20,PIGQ,≤ 0.25
21,PRNL,≤ 0.25
22,GQSR,≤ 0.25
23,GLAA,≤ 0.25
24,DCRL,≤ 0.25

row,Variant,enrichment ratio
1,HPAC,≤ 0.25
2,MHMK,≤ 0.25
3,LFHP,≤ 0.25
4,EMKV,≤ 0.25
5,LSIN,≤ 0.25
6,YHMW,≤ 0.25
7,RMFD,≤ 0.25
8,RPEF,≤ 0.25
9,INAD,≤ 0.25
10,LRKN,≤ 0.25
11,NRQS,≤ 0.25
12,PTAN,≤ 0.25
13,RYSH,≤ 0.25
14,NHEW,≤ 0.25
15,FRMV,≤ 0.25
16,VIWR,≤ 0.25
17,TAMT,11.1
18,MIVW,≤ 0.25
19,SSDL,≤ 0.25
20,AKDM,≤ 0.25
21,WMGM,≤ 0.25
22,KGQY,≤ 0.25
23,TDWL,≤ 0.25
24,TIGL,6.36

row,Variant,enrichment ratio
1,YVYR,≤ 0.25
2,NKMR,≤ 0.25
3,NPWA,≤ 0.25
4,VVEH,≤ 0.25
5,QDWT,≤ 0.25
6,FNLE,≤ 0.25
7,IMFE,2.6
8,RSDT,≤ 0.25
9,TWAG,≤ 0.25
10,NCGY,≤ 0.25
11,GKCQ,≤ 0.25
12,EDWA,≤ 0.25
13,ARIQ,≤ 0.25
14,TRVA,≤ 0.25
15,RSAD,≤ 0.25
16,WYFY,≤ 0.25
17,EVWK,≤ 0.25
18,SVPM,7.47
19,AMAM,7.92
20,HSVS,≤ 0.25
21,NFMQ,≤ 0.25
22,QNQQ,≤ 0.25
23,RMAN,≤ 0.25
24,YHMN,≤ 0.25

row,Variant,enrichment ratio
1,CFNN,≤ 0.25
2,MFMF,≤ 0.25
3,IGEG,≤ 0.25
4,YPLS,≤ 0.25
5,YWPM,≤ 0.25
6,MILM,3.95
7,IHGL,≤ 0.25
8,WWWF,≤ 0.25
9,CFGC,≤ 0.25
10,HCEI,≤ 0.25
11,EATS,≤ 0.25
12,QFDQ,≤ 0.25
13,SVSH,10.5
14,VSMK,≤ 0.25
15,DFWE,≤ 0.25
16,VYVM,≤ 0.25
17,ENGI,≤ 0.25
18,ICIS,≤ 0.25
